Laboratory results as given in the BET-seq Pho4 binding data (Le et al. 2018).
The other results are listed elsewhere or left out. The energies were worked out here from pooled read counts, against the library average; single values are noisy.

molecular target: T1, Pho4 (S. cerevisiae) (UniProt P07270); experiment: relative binding free energy (BET-seq); higher = weaker binding; settings: reference: library average
T1 sequence: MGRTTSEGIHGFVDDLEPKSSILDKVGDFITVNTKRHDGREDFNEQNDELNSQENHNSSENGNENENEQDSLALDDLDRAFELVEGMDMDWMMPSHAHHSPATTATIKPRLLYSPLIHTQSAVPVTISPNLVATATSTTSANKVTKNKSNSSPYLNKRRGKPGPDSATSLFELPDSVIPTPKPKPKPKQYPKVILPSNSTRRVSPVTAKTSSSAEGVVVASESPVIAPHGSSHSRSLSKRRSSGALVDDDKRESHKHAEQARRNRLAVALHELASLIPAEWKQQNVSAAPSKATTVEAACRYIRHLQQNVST

| Sequence | relative binding free energy [kJ/mol] |
| --- | --- |
| GGTTACACGTGCGATG | 0.711 |
| AGTGGCACGTGAGCCG | 0.46 |
| GTTAACACGTGTATGA | 0.126 |
| TTATACACGTGGATTT | 0.209 |
| GACTACACGTGTGTGG | 1.13 |
| TCATTCACGTGCAGGG | 1.3 |
| TAATGCACGTGGCTGT | -0.753 |
| TTTGCCACGTGAGGTG | 0.46 |
| GCGGCCACGTGTGTGT | -0.586 |
| GGGCGCACGTGCGGTG | -0.251 |
| GCTGGCACGTGGGTGC | -0.837 |
| TGAAGCACGTGCTTTT | -0.167 |
| GTAGGCACGTGGCGTC | -1.09 |
| TGCTTCACGTGCGGGG | 1 |
| AGTCGCACGTGGAAGG | -0.251 |
| GAAGACACGTGGGGAT | -0.0418 |
| GGTGACACGTGGTTCA | 0.795 |
| ATATGCACGTGTATGG | -0.628 |
| TGATTCACGTGAGAGA | 1.76 |
| TCGGTCACGTGTGATA | 0 |
| TCTGTCACGTGGGTGA | -0.502 |
| GATGGCACGTGTGCGT | -0.0418 |
| TTTACCACGTGTGGTA | -0.586 |

| Sequence | relative binding free energy [kJ/mol] |
| --- | --- |
| AAGGTCACGTGCCAGT | 0.628 |
| TCCCGCACGTGGGGGT | -0.669 |
| TACGGCACGTGTGGAT | 0 |
| TCTATCACGTGGTGTT | 0.418 |
| GGACTCACGTGCAGGG | 1.38 |
| GTTCTCACGTGTTTAT | 1.38 |
| ATTGTCACGTGGGTAT | -0.46 |
| GTGGGCACGTGCCCGG | -0.586 |
| TCATTCACGTGGTTTG | 0.753 |
| TTTTCCACGTGTGGGA | 0.335 |
| GTCCTCACGTGGTTGG | 1.3 |
| GGGGACACGTGATATT | 0.962 |
| CGTGGCACGTGGTCGT | -1 |
| ATGTTCACGTGAGCTT | 1.34 |
| ATTAGCACGTGGTAAG | -0.711 |
| AGAGACACGTGGTTGG | 0.0837 |
| GTGATCACGTGGGCTC | 0.628 |
| TGGTTCACGTGGCAGC | 0.795 |
| ATGGACACGTGTTATA | 0.126 |
| CGTATCACGTGGGGGC | -0.335 |
| CGTTGCACGTGAGTGG | 0.879 |
| TGTGACACGTGGGTGA | -0.335 |
| CTTATCACGTGGGGGC | -0.251 |

| Sequence | relative binding free energy [kJ/mol] |
| --- | --- |
| ATGGACACGTGCGGAT | 0.167 |
| TCGTGCACGTGTGTGT | -0.544 |
| TCGATCACGTGGAGTG | 0.126 |
| AGGGACACGTGTTAAA | 0.711 |
| GATATCACGTGAGTCG | 2.05 |
| ATTTGCACGTGAGTTG | 1.21 |
| CGGAACACGTGGGGTG | -1.17 |
| TATGGCACGTGCGTTC | -0.502 |
| ATATGCACGTGGGACT | -0.251 |
| TGAATCACGTGATTGG | 1.21 |
| GGCGGCACGTGGCATG | -0.167 |
| AGTAACACGTGTGAAG | 0 |
| GAATTCACGTGTGATT | 1.34 |
| TGGGGCACGTGTTTCT | -0.335 |
| AGGTTCACGTGACAGT | 1.76 |
| TGCTTCACGTGTGGGT | 1.17 |
| ACGTTCACGTGTTAGG | 0.628 |
| TACTGCACGTGGCTTG | 0.251 |
| TTGGCCACGTGGTCTT | -0.502 |
| CTATACACGTGAGTTG | 1.13 |
| GGGGCCACGTGTTAGA | -0.293 |
| CTGTGCACGTGTTAAG | -0.418 |
| CTCGGCACGTGTTGTG | -0.544 |

| Sequence | relative binding free energy [kJ/mol] |
| --- | --- |
| TTTGCCACGTGTTAAG | -0.335 |
| TTGAACACGTGTGAGT | 0.46 |
| ATAGGCACGTGTGTCT | -0.711 |
| ATAGGCACGTGTCGTG | -0.669 |
| ATATGCACGTGGTAGT | -0.418 |
| GGGAACACGTGTTCGT | 0 |
| AAAGACACGTGATGGT | 0.46 |
| GGGTTCACGTGCGGGG | 1.38 |
| CTCGTCACGTGGGGAG | -0.377 |
| TGCAGCACGTGTTGTG | -0.586 |
| ATCTGCACGTGTTAGT | -0.167 |
| AATCGCACGTGTAGTT | 0.0837 |
| GTGTCCACGTGCAGGT | 0.377 |
| ATGTACACGTGTAATT | 0.167 |
| GGGAACACGTGGTATT | 0.167 |
| CCTGGCACGTGGAGTG | -0.418 |
| ATAGGCACGTGGTTGT | -0.335 |
| AGTATCACGTGAAAGG | 0.544 |
| GTGAACACGTGAAGGG | 1.09 |
| TTGGCCACGTGGCTTG | -0.628 |
| GGAATCACGTGGGTGG | 0.502 |
| GTTTTCACGTGAGGTC | 2.26 |
| AAGTGCACGTGGGTTA | -0.669 |

| Sequence | relative binding free energy [kJ/mol] |
| --- | --- |
| GTGTCCACGTGGGCGC | -0.126 |
| TGATACACGTGTAGTT | 0.418 |
| CTGTTCACGTGTGTGC | 1.17 |
| GGTGGCACGTGTAAAG | 0.544 |
| CGGCGCACGTGGCGTG | -1.3 |
| TCAGTCACGTGCGGTT | -0.0418 |
| AGTAGCACGTGATAAG | 0.0418 |
| TGTAGCACGTGTGCTT | -0.0837 |
| ATAGTCACGTGACGGA | 1.09 |
| AGGTTCACGTGTAACT | 1.17 |
| ATATGCACGTGAAATG | 1.3 |
| TTCGTCACGTGGGTGC | 0 |
| GTTAGCACGTGCGATG | -0.0837 |
| TGTGTCACGTGATATG | 0.544 |
| TGATACACGTGATAGT | 0.377 |
| GGTATCACGTGAGATG | 1.42 |
| GATGTCACGTGAGTTA | 1.59 |
| GAGTACACGTGATTGT | 0.962 |
| TTGTGCACGTGACGGT | 0.251 |
| TGCTGCACGTGAGGTT | 0.669 |
| GAGGACACGTGAAGTG | 1.34 |
| CGGATCACGTGCGGGT | 0.586 |
| AATGTCACGTGCGGTA | 0.0418 |
